Laboratory results as given in patent US10299477B2 (priority 2015, dated 2019).

Columns and labels:
Type in all cases: in vivo
[1] = test system: Blumeria graminis f sp. hordei; experiment: Test Example D: Powdery mildew on barley; settings: for Test D control value (powdery mildew on barley): preventive, control value class; for Test D (control value class, powdery mildew on barley): in vivo
Description: [Test Example D] Powdery Mildew on Barley
After the sprayed dilutions were dried, conidia of Blumeria graminis f sp. hordei were inoculated to the plants by shaking off.

Plasmopara viticola = experiment: Test Example G: Downy mildew on vine; settings: for Test G (control value class): 250 ppm spray; for Test G control value (downy mildew on vine): 250 ppm spray (2.5 ml/pot), preventive, control value class; for Test G (control value class, downy mildew on vine): 250 ppm, sprayed 2.5 ml/pot before inoculation
Description: [Test Example G] Downy Mildew on Vine
Seeds of a test plant (grape variety: Neomuscat) were planted followed by cultivating until three to four first leaves appeared. […] After the sprayed dilutions were dried, a zoosporangia suspension (1-2×10^4 zoosporangia/ml) of Plasmopara viticola was inoculated to the plants by spraying.

Alternaia brassicicola = experiment: Test Example C: Alternaria sooty spot on cabbage; settings: for Test C (control value class): Alternaria sooty spot on cabbage; for Test C control value (Alternaria sooty spot on cabbage): preventive, control value class; for Test C (control value class, Alternaria sooty spot on cabbage): in vivo
Description: [Test Example C] Alternaria Sooty Spot on Cabbage
Seeds of a test plant (cabbage variety: Shikidori) were planted followed by cultivating until the cotyledons extended.

Botrytis cinerea = experiment: Test Example B: Gray mold on tomato; settings: for Test B control value (gray mold on tomato): preventive, control value class; for Test B (control value class, gray mold on tomato): in vivo
Description: [Test Example B] Gray Mold on Tomato
Seeds of a test plant (tomato variety: Oogata Fukuju) were planted followed by cultivating until three to five first leaves (true leaves) appeared.

Puccinia recondita = experiment: Test Example E: Brown rust on wheat; settings: for Test E control value (brown rust on wheat): preventive, control value class; for Test E (control value class, brown rust on wheat): in vivo
Description: [Test Example E] Brown Rust on Wheat

[2] = Powdery mildew on barley, control value=100{1-(n/3)}
[3] = Downy mildew on vine, 2.5 ml/pot, evaluated 7-10 days after inoculation
[4] = Gray mold on tomato, control value=100{1-(n/3)}
[5] = Brown rust on wheat, control value=100{1-(n/3)}
[6] = powdery mildew on barley, 250 ppm spray
[7] = downy mildew on vine, Plasmopara viticola, 7-10 days after inoculation
[8] = gray mold on tomato, Botrytis cinerea, 250 ppm spray
[9] = brown rust on wheat, Puccinia recondita, 250 ppm spray
[10] = evaluated 7-10 days after inoculation

## CCn1c(-c2c(F)cc(F)cc2F)c(-c2cc(F)cc(F)c2Br)cc(Br)c1=O [Compound 814]
[1]; [2]
  Test D (control value class): H (H shows more than 50% of control values)
Plasmopara viticola; [3]
  Test G (control value class): L (L shows 50% or less of control values)
Alternaia brassicicola; control value=100{1-(n/3)}
  Test C (control value class): H (H shows more than 50% of control values)
Botrytis cinerea; [4]
  Test B (control value class): H (H shows more than 50% of control values)
Puccinia recondita; [5]
  Test E (control value class): H (H shows more than 50% of control values)

## CCn1c(-c2c(F)cc(F)cc2F)c(-c2cccc(O)c2Cl)cc(Cl)c1=O [Compound 806]
[1]; [2]
  Test D (control value class): H (H shows more than 50% of control values)
Plasmopara viticola; [3]
  Test G (control value class): H (H shows more than 50% of control values)
Alternaia brassicicola; control value=100{1-(n/3)}
  Test C (control value class): H (H shows more than 50% of control values)
Botrytis cinerea; [4]
  Test B (control value class): H (H shows more than 50% of control values)
Puccinia recondita; [5]
  Test E (control value class): H (H shows more than 50% of control values)

## CCn1c(-c2c(F)cc(OC)cc2F)c(-c2cc(F)cc(F)c2)cc(Br)c1=O [Compound 799]
[1]; [2]
  Test D (control value class): H (H shows more than 50% of control values)
Plasmopara viticola; [3]
  Test G (control value class): H (H shows more than 50% of control values)
Alternaia brassicicola; control value=100{1-(n/3)}
  Test C (control value class): H (H shows more than 50% of control values)
Botrytis cinerea; [4]
  Test B (control value class): H (H shows more than 50% of control values)
Puccinia recondita; [5]
  Test E (control value class): H (H shows more than 50% of control values)

## CCn1c(-c2c(F)cc(OC)cc2F)c(-c2cc(F)cc(F)c2)cc(Cl)c1=O [Compound 798]
[1]; [2]
  Test D (control value class): H (H shows more than 50% of control values)
Plasmopara viticola; [3]
  Test G (control value class): L (L shows 50% or less of control values)
Alternaia brassicicola; control value=100{1-(n/3)}
  Test C (control value class): H (H shows more than 50% of control values)
Botrytis cinerea; [4]
  Test B (control value class): H (H shows more than 50% of control values)
Puccinia recondita; [5]
  Test E (control value class): H (H shows more than 50% of control values)

## Cn1c(-c2c(F)cccc2F)c(-c2cc(Cl)ccc2Cl)cc(Cl)c1=O [Compound 447]
[1]; [6]
  Test D (control value class): H (H shows more than 50% of control values)
Plasmopara viticola; [7]
  Test G (control value class): L (L shows 50% or less of control values)
Alternaia brassicicola; 250 ppm spray
  Test C (control value class): H (H shows more than 50% of control values)
Botrytis cinerea; [8]
  Test B (control value class): H (H shows more than 50% of control values)
Puccinia recondita; [9]
  Test E (control value class): H (H shows more than 50% of control values)

## COc1cc(OC)c(Cl)c(-c2ccc(=O)n(CC(F)F)c2-c2c(F)cc(F)cc2F)c1 [Compound 343]
[1]; 250 ppm spray
  Test D control value (powdery mildew on barley): H (H shows more than 50% of control values)
Plasmopara viticola; 7-10 days after inoculation
  Test G control value (downy mildew on vine): H (H shows more than 50% of control values)
Alternaia brassicicola; 250 ppm spray
  Test C control value (Alternaria sooty spot on cabbage): H (H shows more than 50% of control values)
Botrytis cinerea; 250 ppm spray
  Test B control value (gray mold on tomato): H (H shows more than 50% of control values)
Puccinia recondita; 250 ppm spray
  Test E control value (brown rust on wheat): H (H shows more than 50% of control values)

## COc1cc(OC)c(Cl)c(-c2ccc(=O)n(C)c2-c2c(F)cc(OCC(F)(F)F)cc2F)c1 [Compound 319]
[1]; 250 ppm spray
  Test D control value (powdery mildew on barley): H (H shows more than 50% of control values)
Plasmopara viticola; 7-10 days after inoculation
  Test G control value (downy mildew on vine): L (L shows 50% or less of control values)
Alternaia brassicicola; 250 ppm spray
  Test C control value (Alternaria sooty spot on cabbage): H (H shows more than 50% of control values)
Botrytis cinerea; 250 ppm spray
  Test B control value (gray mold on tomato): H (H shows more than 50% of control values)
Puccinia recondita; 250 ppm spray
  Test E control value (brown rust on wheat): H (H shows more than 50% of control values)

## Cc1cc(-c2ccccc2F)c(-c2c(F)cc(F)cc2F)n(C)c1=O [Compound 571]
[1]
  Test D (control value class, powdery mildew on barley): H (H shows more than 50% of control values)
Plasmopara viticola; [10]
  Test G (control value class, downy mildew on vine): H (H shows more than 50% of control values)
Alternaia brassicicola
  Test C (control value class, Alternaria sooty spot on cabbage): H (H shows more than 50% of control values)
Botrytis cinerea
  Test B (control value class, gray mold on tomato): H (H shows more than 50% of control values)
Puccinia recondita
  Test E (control value class, brown rust on wheat): H (H shows more than 50% of control values)

## CCn1c(-c2c(F)cc(F)cc2F)c(-c2cccc(OC)c2Cl)cc(C)c1=O [Compound 632]
[1]
  Test D (control value class, powdery mildew on barley): H (H shows more than 50% of control values)
Plasmopara viticola; [10]
  Test G (control value class, downy mildew on vine): L (L shows 50% or less of control values)
Alternaia brassicicola
  Test C (control value class, Alternaria sooty spot on cabbage): H (H shows more than 50% of control values)
Botrytis cinerea
  Test B (control value class, gray mold on tomato): H (H shows more than 50% of control values)
Puccinia recondita
  Test E (control value class, brown rust on wheat): H (H shows more than 50% of control values)

## CCn1c(-c2ccccc2F)c(-c2cc(OC)cc(OC)c2Br)ccc1=O [Compound 231]
[1]; 250 ppm spray
  Test D control value (powdery mildew on barley): H (H shows more than 50% of control values)
Plasmopara viticola; 7-10 days after inoculation
  Test G control value (downy mildew on vine): H (H shows more than 50% of control values)
Alternaia brassicicola; 250 ppm spray
  Test C control value (Alternaria sooty spot on cabbage): H (H shows more than 50% of control values)
Botrytis cinerea; 250 ppm spray
  Test B control value (gray mold on tomato): H (H shows more than 50% of control values)
Puccinia recondita; 250 ppm spray
  Test E control value (brown rust on wheat): H (H shows more than 50% of control values)

## O=c1ccc(-c2c(F)cccc2Cl)c(-c2c(F)cccc2F)n1CC(F)F [Compound 406]
[1]; [6]
  Test D (control value class): H (H shows more than 50% of control values)
Plasmopara viticola; [7]
  Test G (control value class): H (H shows more than 50% of control values)
Alternaia brassicicola; 250 ppm spray
  Test C (control value class): H (H shows more than 50% of control values)
Botrytis cinerea; [8]
  Test B (control value class): H (H shows more than 50% of control values)
Puccinia recondita; [9]
  Test E (control value class): H (H shows more than 50% of control values)

## CCn1c(-c2c(F)cccc2F)c(-c2c(F)c(F)c(F)c(F)c2F)ccc1=O [Compound 368]
[1]; 250 ppm spray
  Test D control value (powdery mildew on barley): H (H shows more than 50% of control values)
Plasmopara viticola; 7-10 days after inoculation
  Test G control value (downy mildew on vine): L (L shows 50% or less of control values)
Alternaia brassicicola; 250 ppm spray
  Test C control value (Alternaria sooty spot on cabbage): H (H shows more than 50% of control values)
Botrytis cinerea; 250 ppm spray
  Test B control value (gray mold on tomato): H (H shows more than 50% of control values)
Puccinia recondita; 250 ppm spray
  Test E control value (brown rust on wheat): H (H shows more than 50% of control values)

## CCOc1cc(F)c(-c2c(-c3cc(F)ccc3Cl)cc(Cl)c(=O)n2CC)c(F)c1 [Compound 547]
[1]; [6]
  Test D (control value class): H (H shows more than 50% of control values)
Plasmopara viticola; [7]
  Test G (control value class): L (L shows 50% or less of control values)
Alternaia brassicicola; 250 ppm spray
  Test C (control value class): H (H shows more than 50% of control values)
Botrytis cinerea; [8]
  Test B (control value class): H (H shows more than 50% of control values)
Puccinia recondita; [9]
  Test E (control value class): H (H shows more than 50% of control values)

## CCn1c(-c2c(F)cc(F)cc2F)c(-c2cccc(OC)c2Cl)cc(Br)c1=O [Compound 620]
[1]
  Test D (control value class, powdery mildew on barley): H (H shows more than 50% of control values)
Plasmopara viticola; [10]
  Test G (control value class, downy mildew on vine): L (L shows 50% or less of control values)
Alternaia brassicicola
  Test C (control value class, Alternaria sooty spot on cabbage): H (H shows more than 50% of control values)
Botrytis cinerea
  Test B (control value class, gray mold on tomato): H (H shows more than 50% of control values)
Puccinia recondita
  Test E (control value class, brown rust on wheat): H (H shows more than 50% of control values)

## CCN1C(=O)CCC(c2cc(F)ccc2Cl)=C1c1c(F)cccc1F [Compound 356]
[1]; 250 ppm spray
  Test D control value (powdery mildew on barley): H (H shows more than 50% of control values)
Plasmopara viticola; 7-10 days after inoculation
  Test G control value (downy mildew on vine): H (H shows more than 50% of control values)
Alternaia brassicicola; 250 ppm spray
  Test C control value (Alternaria sooty spot on cabbage): H (H shows more than 50% of control values)
Botrytis cinerea; 250 ppm spray
  Test B control value (gray mold on tomato): H (H shows more than 50% of control values)
Puccinia recondita; 250 ppm spray
  Test E control value (brown rust on wheat): H (H shows more than 50% of control values)

## CCn1c(-c2c(F)cc(F)cc2F)c(-c2ccc(F)cc2Cl)cc(C)c1=O [Compound 594]
[1]
  Test D (control value class, powdery mildew on barley): H (H shows more than 50% of control values)
Plasmopara viticola; [10]
  Test G (control value class, downy mildew on vine): H (H shows more than 50% of control values)
Alternaia brassicicola
  Test C (control value class, Alternaria sooty spot on cabbage): H (H shows more than 50% of control values)
Botrytis cinerea
  Test B (control value class, gray mold on tomato): H (H shows more than 50% of control values)
Puccinia recondita
  Test E (control value class, brown rust on wheat): H (H shows more than 50% of control values)

## CCn1c(-c2c(F)cc(OC)cc2F)c(-c2cc(F)cc(F)c2Cl)ccc1=O [Compound 693]
[1]
  Test D (control value class, powdery mildew on barley): H (H shows more than 50% of control values)
Plasmopara viticola; [10]
  Test G (control value class, downy mildew on vine): H (H shows more than 50% of control values)
Alternaia brassicicola
  Test C (control value class, Alternaria sooty spot on cabbage): H (H shows more than 50% of control values)
Botrytis cinerea
  Test B (control value class, gray mold on tomato): H (H shows more than 50% of control values)
Puccinia recondita
  Test E (control value class, brown rust on wheat): H (H shows more than 50% of control values)

## Cn1c(-c2c(F)cccc2F)c(-c2cccc(F)c2Cl)cc(Cl)c1=O [Compound 509]
[1]; [6]
  Test D (control value class): H (H shows more than 50% of control values)
Plasmopara viticola; [7]
  Test G (control value class): H (H shows more than 50% of control values)
Alternaia brassicicola; 250 ppm spray
  Test C (control value class): H (H shows more than 50% of control values)
Botrytis cinerea; [8]
  Test B (control value class): H (H shows more than 50% of control values)
Puccinia recondita; [9]
  Test E (control value class): H (H shows more than 50% of control values)

## CCn1c(-c2c(F)cc(F)cc2F)c(-c2cccc(F)c2C)cc(Br)c1=O [Compound 682]
[1]
  Test D (control value class, powdery mildew on barley): H (H shows more than 50% of control values)
Plasmopara viticola; [10]
  Test G (control value class, downy mildew on vine): L (L shows 50% or less of control values)
Alternaia brassicicola
  Test C (control value class, Alternaria sooty spot on cabbage): H (H shows more than 50% of control values)
Botrytis cinerea
  Test B (control value class, gray mold on tomato): H (H shows more than 50% of control values)
Puccinia recondita
  Test E (control value class, brown rust on wheat): H (H shows more than 50% of control values)
